# From the supplement of paper PMC9990464
# Structures can show the parent of a compound that is named as a salt. ± gives the standard deviation of the averaged measurements. Some of the results follow. Most values come without repeats; read them as rough.
# Legend:
# Assay in all cases: area under viability curve (10 nM-1 µM), viability relative to solvent or trametinib-only control (AUC (arbitrary, % viability x concentration range)); higher = less growth inhibition (more viable cells)
# SJNB8 = conditions: 72 h compound exposure (96 h after seeding) h; trametinib co-treatment 0 µM
# Protocol: (§1)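 Four neuroblastoma cell lines (KCNR, SKNBE, SJNB8, SKNAS) were seeded in 384-well plates. At 24 h, 1 µM trametinib or DMSO was added, followed by library compounds at 10 nM, 100 nM and 1 µM. Viability was read by MTT at 96 h and normalised to solvent-treated cells (DMSO arm) or to trametinib-only cells (trametinib arm). The area under the 3-point viability curve was computed in GraphPad Prism; units are as given (approx. 100000 = no effect).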
# SKNAS = conditions: 72 h compound exposure (96 h after seeding) h
# Protocol: as §1
# SKNBE = conditions: 72 h compound exposure (96 h after seeding) h
# Protocol: as §1
# KCNR = conditions: 72 h compound exposure (96 h after seeding) h
# Protocol: as §1
# 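Also: KCNR is a neuroblastoma cell line carrying an ALK mutation, in this DMSO arm without trametinib, viability was normalised to solvent-treated cells.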
SMILES,area under viability curve (SJNB8),area under viability curve (SKNAS; trametinib co-treatment 0 µM),area under viability curve (SKNAS; trametinib co-treatment 1 µM),area under viability curve (SKNBE; trametinib co-treatment 0 µM),area under viability curve (SKNBE; trametinib co-treatment 1 µM),area under viability curve (KCNR; trametinib co-treatment 0 µM),area under viability curve (KCNR; trametinib co-treatment 1 µM)
CC(=O)[C@]1(O)Cc2c(O)c3c(c(O)c2[C@@H](O[C@H]2C[C@H](N)[C@H](O)[C@H](C)O2)C1)C(=O)c1ccccc1C3=O [Idarubicin HCl],39100,30800,26000,19700,6720,–,–
COc1cc(Nc2c(C#N)cnc3cc(OCCCN4CCN(C)CC4)c(OC)cc23)c(Cl)cc1Cl [Bosutinib isomer 1],87800,112000,104000,95400,100000,–,–
Cc1cc(Nc2cc(N3CCN(C)CC3)nc(Sc3ccc(NC(=O)C4CC4)cc3)n2)n[nH]1 [Tozasertib],55900,63100,59000,56200,37700,–,–
O=C(c1ccc(Cl)cc1Cl)n1nnc2ccccc21,87000,115000,102000,109000,106000,109000,107000
O=c1[nH]c(=O)n([C@H]2C[C@H](O)[C@@H](CO)O2)cc1I [Idoxuridine],81400,88900,95200,99400,93100,101000,99100
Cc1ccc(C(=O)Nc2ccc(CN3CCN(C)CC3)c(C(F)(F)F)c2)cc1C#Cc1cnc2cccnn12 [Ponatinib],75800,97400,84800,93900,83100,–,–
COc1cc2c(Oc3ccc(NC(=O)C4(C(=O)Nc5ccc(F)cc5)CC4)cc3F)ccnc2cc1OCCCN1CCOCC1 [Foretinib],65300,76500,82800,62800,72900,–,–
Clc1ccc(Nc2nnc(Cc3ccncc3)c3ccccc23)cc1 [Vatalanib HCl],82300,82000,99800,92600,101000,–,–
C[C@@H](Oc1cc(-c2cnn(C3CCNCC3)c2)cnc1N)c1c(Cl)ccc(F)c1Cl [Crizotinib],102000 ± 8900,98300 ± 36000,88550 ± 280,101000 ± 2800,92470 ± 770,–,–
N#CCNC(=O)c1ccc(-c2ccnc(Nc3ccc(N4CCOCC4)cc3)n2)cc1 [Momelotinib],73900,67600,94800,77800,84100,91500,97400
Cc1[nH]c2ccccc2c1CCNCc1ccc(/C=C/C(=O)NO)cc1 [Panobinostat],31500,13000,4440,6840,1790,–,–
O=C(O)C(=O)O.[NH-][C@@H]1CCCC[C@H]1[NH-].[Pt+2] [Oxaliplatin],85500,111000,99900,101000,109000,103000,100000
Cn1c(=O)n(-c2ccc(C(C)(C)C#N)cc2)c2c3cc(-c4cnc5ccccc5c4)ccc3ncc21 [Dactolisib],40700,50200,54700,30900,18300,47800,52200
O=C(O)CCCc1ccccc1 [Phenylbutyrate·Na],90100,113000,104000,103000,108000,102000,98700
O=C(NC[C@H](O)CO)c1ccncc1Nc1ccc(I)cc1F [Pimasertib],37200,52500,103000,85000,108000,–,–
CC(NC(=O)c1ccccc1/N=C/c1c(O)ccc2ccccc12)c1ccccc1 (stereo not given) [Sirtinol],74000,85300,94900,83700,80100,96200,96200
CC[C@]1(O)C[C@H]2CN(CCc3c([nH]c4ccccc34)[C@@](C(=O)OC)(c3cc4c(cc3OC)N(C=O)[C@H]3[C@@](O)(C(=O)OC)[C@H](OC(C)=O)[C@]5(CC)C=CCN6CC[C@]43[C@@H]65)C2)C1 [Vincristine sulfate],26800,21300,17700,22500,2980,–,–
O=C(CCCCCCC(=O)NO)NO [Suberoyl bis-hydroxamic acid],91200,107000,95700,113000,101000,99500,94700
Nc1nc(Cl)nc2c1ncn2[C@H]1C[C@H](O)[C@@H](CO)O1 [Cladribine],62300,39100,73700,91200,93000,–,–
Cc1cc2c(F)c(Oc3ncnn4cc(OC[C@@H](C)OC(=O)[C@H](C)N)c(C)c34)ccc2[nH]1 [Brivanib alaninate],83700,85900,104000,102000,108000,–,–
COc1cccc2c1C(=O)c1c(O)c3c(c(O)c1C2=O)C[C@@](O)(C(C)=O)C[C@@H]3O[C@H]1C[C@H](NC(=O)OCc2ccc(O[C@@H]3O[C@H](CO)[C@H](O)[C@H](O)[C@H]3O)c([N+](=O)[O-])c2)[C@H](O)[C@H](C)O1,80100,79500,76300,91600,65100,–,–
Cc1nc(N)sc1-c1ccnc(Nc2ccc(N3CCOCC3)cc2)n1,81200,115000,80600,93000,92400,–,–
CC(=O)O[C@H]1CC[C@@]2(C)C(=CC[C@@H]3[C@@H]2CC[C@]2(C)C(c4cccnc4)=CC[C@@H]32)C1 [Abiraterone acetate],103000,116000,96100,102000,97000,104000,96800
CS(=O)(=O)N1CCN(Cc2cc3nc(-c4cccc5[nH]ncc45)nc(N4CCOCC4)c3s2)CC1 [Pictilisib],86300,102000,75900,80700,59200,69900,78100
Cc1cc(NC(=O)Nc2ccc(N(C)C)cc2)c2cc(F)cc(F)c2n1,96500,98900,96600,101000,102000,–,–
Cc1[nH]c(/C=C2\C(=O)Nc3ccc(S(=O)(=O)N(C)c4cccc(Cl)c4)cc32)c(C)c1C(=O)N1CCN(C)CC1,67700,101000,99100,91400,97700,–,–
CCC1=C[C@H]2CN(C1)Cc1c([nH]c3ccccc13)[C@@](C(=O)OC)(c1cc3c(cc1OC)N(C)[C@H]1[C@@](O)(C(=O)OC)[C@H](OC(C)=O)[C@]4(CC)C=CCN5CC[C@]31[C@@H]54)C2 [Vinorelbine bitatrate],56700,27300,16200,41600,10100,–,–
COc1cccc2c1C(=O)c1c(O)c3c(c(O)c1C2=O)C[C@@](O)(C(=O)CO)C[C@@H]3O[C@H]1C[C@H](N)[C@H](O)[C@H](C)O1 [Adriamycin],62600,39800,33200,56100,13600,–,–
